The supplement of paper PMC9446081
Among all 39,000 compounds or so, about 220 (0.56%) showed activity. The list shows a part of the results.

The compounds below were run on Escherichia coli K-12 BW25113 (assay: relative growth (OD600 normalised to plate interquartile mean) (fraction); higher = less growth inhibition, active = 0.2 or less). Settings: 50 µM; LB; incubation time: overnight (16-24 h).
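Further: static incubation at 37 °C against the wild-type strain, values averaged over two biological replicates.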

SMILES | relative growth
Cc1noc(C)c1NC(=O)Nc1ccc2c(c1)C(=O)N([C@@H](C)CO)C[C@@H](C)[C@@H](CN(C)C(=O)Nc1cccc3ccccc13)OCCCC[C@@H](C)O2 | inactive: 0.997
C[C@@H]1CN([C@H](C)CO)C(=O)CCCn2cc(nn2)CO[C@H]1CN(C)S(=O)(=O)c1ccc(-c2ccccc2)cc1 | inactive: 0.924
C[C@@H]1CCCCO[C@@H](CN(C)C(=O)Cc2ccccc2)[C@@H](C)CN([C@H](C)CO)C(=O)c2cc(NC(=O)Nc3ccc4c(c3)OCO4)ccc2O1 | inactive: 1.02
C[C@H]1CN([C@@H](C)CO)C(=O)CCCn2nncc2CO[C@@H]1CN(C)S(=O)(=O)c1ccc(C#N)cc1 | inactive: 1
CC#CCCC(=O)O | inactive: 1.01
C[C@@H]1CCCCO[C@H](CN(C)Cc2ccncc2)[C@H](C)CN([C@H](C)CO)C(=O)c2cc(NC(=O)CCC(F)(F)F)ccc2O1 | inactive: 0.991
C[C@H]1CN([C@@H](C)CO)C(=O)Cc2cc(NC(=O)Cc3cn(C)c4ccccc34)ccc2O[C@@H]1CN(C)S(=O)(=O)c1cn(C)cn1 | inactive: 1.01
Cc1noc(C)c1NC(=O)N(C)C[C@@H]1Oc2ccc(NS(=O)(=O)c3ccccc3)cc2CC(=O)N([C@@H](C)CO)C[C@H]1C | inactive: 1
Cc1noc(C)c1S(=O)(=O)Nc1ccc2c(c1)C(=O)N([C@H](C)CO)C[C@@H](C)[C@@H](CN(C)Cc1ccccc1)OCCCC[C@H](C)O2 | inactive: 0.997
CCCN(C)C[C@H]1OCCCC[C@@H](C)Oc2ccc(NC(=O)Cc3ccccc3)cc2C(=O)N([C@@H](C)CO)C[C@H]1C | inactive: 0.939
COc1ccc(Sc2ccc(N(C(=O)c3ccccc3Cl)C(=O)c3ccccc3Cl)cc2C#N)cc1 | inactive: 1.03
NC(=O)c1cccnc1 | inactive: 1.1
NCCC(=O)N[C@@H](Cc1cnc[nH]1)C(=O)O | inactive: 1
Cc1ccc(S[C@]2(C(=O)NCC(C)C)CC(=O)N(Cc3ccccc3Cl)[C@@H]2c2ccc(CO)cc2I)cc1 | inactive: 1.04
Nc1nccs1 | inactive: 1.12
CC(C)CCCC(C)C1CCC2C3CC=C4CC(=O)CCC4(C)C3CCC12C (stereo not given) | inactive: 1.08
C[C@@H]1CCCCO[C@H](CN(C)CC2CCCCC2)[C@H](C)CN([C@@H](C)CO)C(=O)c2cc(NS(=O)(=O)c3ccc(F)cc3)ccc2O1 | inactive: 0.98
COCCOC(=O)N1C(=O)[C@@]2(c3ccccc31)[C@H](c1ccc(O)cc1)N1[C@H](c3ccccc3)[C@H](c3ccccc3)OC(=O)[C@H]1[C@@H]2C(=O)Nc1nc2ccccc2s1 | inactive: 1.03
Cc1ccc(S(=O)(=O)Nc2ccc3c(c2)CC(=O)N([C@H](C)CO)C[C@@H](C)[C@H](CN(C)S(=O)(=O)c2cccs2)O3)cc1 | inactive: 0.994
COCC#Cc1cnc2c(c1)C(=O)N([C@H](C)CO)C[C@@H](C)[C@@H](CN(C)C(=O)CCN1CCCCC1)O2 | inactive: 1.02

SMILES | relative growth
C[C@H](CO)N1C[C@H](C)[C@H](CN(C)C(=O)Nc2cccc3ccccc23)Oc2ncc(-c3cc4ccccc4o3)cc2C1=O | inactive: 1.04
O=C(C[C@@H]1CC[C@H]2[C@@H](COC[C@H](O)CN2S(=O)(=O)c2ccccc2Cl)O1)NCc1ccccc1Cl | inactive: 0.98
Cc1ccc(S(=O)(=O)N(C)C[C@H]2Oc3cc(C#Cc4ccncc4)ccc3S(=O)(=O)N([C@@H](C)CO)C[C@H]2C)cc1 | inactive: 1.04
C[C@@H]1CN([C@@H](C)CO)S(=O)(=O)c2ccc(-c3cccnc3)cc2O[C@@H]1CN(C)C(=O)NC1CCCC1 | inactive: 1
CC(C)C[C@H](N)C(=O)O | inactive: 1.02
COc1ccc(NC(=O)N(C)C[C@H]2Oc3ccc(NC(=O)Nc4ccc(C(F)(F)F)cc4)cc3C(=O)N([C@@H](C)CO)C[C@H]2C)cc1 | inactive: 1.04
C[C@@H]1CN([C@H](C)CO)C(=O)c2c(c3ccccc3n2C)-c2ccccc2CO[C@@H]1CN(C)Cc1ccc2c(c1)OCCN2C | inactive: 1.02
Cn1c(=O)c2c(ncn2CC(O)CO)n(C)c1=O (stereo not given) | inactive: 1.04
C[C@H](CO)N1C[C@H](C)[C@H](CN(C)Cc2ccccc2)OCCCC[C@H](C)Oc2ccc(NC(=O)Nc3ccc(F)cc3)cc2C1=O | inactive: 0.995
CCOC(=O)c1c(CN2CCN(Cc3ccccc3)CC2)n(-c2ccccc2)c2cc(Br)c(OC)cc12 | inactive: 1.03
NC[C@H]1O[C@H](O[C@H]2[C@H](O[C@@H]3O[C@H](CO)[C@@H](O)[C@H]3O)[C@@H](O)[C@H](N)C[C@@H]2N)[C@H](N)[C@@H](O)[C@@H]1O | inactive: 0.515
C[C@H]1CCCCO[C@H](CN(C)C(=O)c2ccccc2)[C@@H](C)CN([C@@H](C)CO)C(=O)c2cc(NS(=O)(=O)c3ccc(F)cc3)ccc2O1 | inactive: 1.02
C[C@@H]1CN([C@H](C)CO)C(=O)c2cc(NC(=O)Nc3ccccc3)ccc2O[C@@H]1CN(C)C(=O)Nc1ccc(C(F)(F)F)cc1 | inactive: 0.996
COc1ccc(C#Cc2ccc3c(c2)[C@]2(C(=O)N3)[C@H](C(N)=O)[C@H]3C(=O)O[C@H](c4ccccc4)[C@H](c4ccccc4)N3[C@@H]2c2ccccc2OCCO)cc1 | inactive: 1.06
C=CCNC(=O)[C@@H]1[C@H]2C(=O)O[C@H](c3ccccc3)[C@H](c3ccccc3)N2[C@H](c2ccc(O)cc2)[C@@]12C(=O)Nc1ccc(C#CC3=CCCCC3)cc12 | inactive: 1.03
C[C@@H]1CN([C@@H](C)CO)S(=O)(=O)c2ccc(C#Cc3ccncc3)cc2O[C@@H]1CN(C)S(=O)(=O)c1ccccc1 | inactive: 1.01
COc1ccc(S(=O)(=O)Nc2ccc3c(c2)C(=O)N([C@H](C)CO)C[C@H](C)[C@@H](CN(C)Cc2ccc(Oc4ccccc4)cc2)O3)cc1 | inactive: 0.985
C[C@H]1CCCCO[C@@H](CN(C)C(=O)Nc2ccc(C(F)(F)F)cc2)[C@@H](C)CN([C@@H](C)CO)C(=O)c2cc(NC(=O)Nc3ccccc3)ccc2O1 | inactive: 0.992
CCCOc1c(-c2ccc3ccccc3n2)cnc2ccccc12 | inactive: 0.983
COc1ccc2c3c(n(c2c1)C)[C@H](CO)N(C[C@]13CN(C1)S(=O)(=O)C)C(=O)CN(C)C | inactive: 0.985

SMILES | relative growth
COCC(=O)N1C[C@@H](C)[C@@H](OC)CN(C)C(=O)c2cc(NC(=O)c3ccc(F)cc3)ccc2OC[C@H]1C | inactive: 0.995
CC(=O)OCC(=O)C1(O)CCC2C3CCC4=CC(=O)CCC4(C)C3C(=O)CC21C (stereo not given) | inactive: 1.07
O=C(C[C@@H]1CC=CC[C@H](NC(=O)OCC2c3ccccc3-c3ccccc32)C(=O)OCCNC1=O)NCCO | inactive: 1
C[C@@H]1CN([C@@H](C)CO)C(=O)Cc2cc(NC(=O)Cc3cn(C)c4ccccc34)ccc2O[C@@H]1CN(C)Cc1ccc(C(=O)Nc2ccccc2N)cc1 | inactive: 0.892
O=C(CCCCCNC(=O)OCc1ccc(CO[C@@H]2C[C@H](c3ccc(Br)cc3)C=C(C(=O)N3CCN(Cc4ccccc4)CC3)O2)cc1)NO | inactive: 0.98
C[C@@H]1CN([C@H](C)CO)C(=O)c2cc(NC(=O)Nc3ccccc3)ccc2O[C@H]1CN(C)Cc1ccc(Cl)c(Cl)c1 | inactive: 1.01
Cc1cccn2c(=O)c(-c3nn[nH]n3)cnc12 | inactive: 1
C[C@@H]1CN([C@@H](C)CO)S(=O)(=O)c2ccc(C#Cc3ccccc3)cc2O[C@@H]1CN(C)S(=O)(=O)c1cn(C)cn1 | inactive: 1.03
C[C@@H]1CCCCO[C@@H](CN(C)C(=O)CCC(F)(F)F)[C@H](C)CN([C@@H](C)CO)C(=O)c2cc(NC(=O)CCC(F)(F)F)ccc2O1 | inactive: 0.933
C[C@@H]1CN([C@@H](C)CO)C(=O)c2cccc(NC(=O)c3ccc(-c4nccs4)cc3)c2O[C@H]1CN(C)S(C)(=O)=O | inactive: 0.893
C[C@H]1CN([C@@H](C)CO)C(=O)c2cc(C#CCN(C)C)cnc2O[C@H]1CN(C)C(=O)Nc1cccc(F)c1 | inactive: 0.994
C[C@@H]1CN([C@@H](C)CO)C(=O)c2cc(NS(=O)(=O)c3ccc(F)cc3)ccc2O[C@H]1CN(C)S(=O)(=O)c1cccs1 | inactive: 0.981
Cc1noc(C)c1NC(=O)N(C)C[C@@H]1Oc2ccc(NS(=O)(=O)c3cccs3)cc2CC(=O)N([C@H](C)CO)C[C@@H]1C | inactive: 0.97
COc1ccc(S(=O)(=O)N(C)C[C@@H]2Oc3c(NS(C)(=O)=O)cccc3C(=O)N([C@H](C)CO)C[C@@H]2C)cc1 | inactive: 1.01
C[C@@H]1CCCCO[C@H](CN(C)S(=O)(=O)c2cn(C)cn2)[C@H](C)CN([C@H](C)CO)C(=O)c2cc(NS(=O)(=O)c3ccc(F)cc3)ccc2O1 | inactive: 1.01
C[C@@H]1CCCCO[C@H](CN(C)C(=O)Cc2ccccc2)[C@@H](C)CN([C@H](C)CO)C(=O)c2cc(NC(=O)Nc3ccccc3)ccc2O1 | inactive: 1.02
CC(C)NC(=O)N(C)C[C@H]1Oc2c(NC(=O)C3CCCCC3)cccc2C(=O)N([C@H](C)CO)C[C@@H]1C | inactive: 0.994
C[C@@H]1CN([C@@H](C)CO)C(=O)c2cccc(NC(=O)C3CCCCC3)c2O[C@@H]1CN(C)Cc1ccc(C(=O)Nc2ccccc2N)cc1 | inactive: 0.99
O=C(C[C@H]1C[C@@H]2c3cc(NC(=O)Nc4ccc(C(F)(F)F)cc4)ccc3O[C@@H]2[C@H](CO)O1)NC1CCCCC1 | inactive: 0.994
COc1ccc(S(=O)(=O)N(C)C[C@@H]2Oc3c(NS(=O)(=O)c4ccccc4)cccc3C(=O)N([C@@H](C)CO)C[C@H]2C)cc1 | inactive: 1.01
